# This is one part of the list.
# B1: PX9961H-bth-557-24-557 (Bacteroides thetaiotaomicron) (protein)
# chain: EETRTEVEKKNYMNNAEEAKDVLLGVYRTNTLDAMYGYYLSILFNLGTDISQVEGSGNENFRIIPTNSFPTTQSEVQQTWAALYTGIYRANDFLERISNKIGSYTTTDKKLATLYIAEARALRGMFYFELVRRFGNVVLMTSTQMSNQNPATYVQSAPEKVYEYIEDDLLYACDILPYATDDQYRESNDYRFSKGAALGLLTKVYATWAGYPVKDESKWEAAAKTARILVESGKHGLLKDYEQLWKNTCNGTWDPTESLIEISFYSPTVSGNSDPVGRIGKWNGVKTTAIAGVRGSCAANVKVVHTFVLDWREDVSDIRRDLSIANYQYTDTKKSLWVAGASDTDESAAEKDADPTKAQKNKQNYTPAKWDIQKYVTTNSFINNDKSNVNWYFLRYADVLLLYAEALNEWKHGPDAEAYNAINAVRRRGYGNPSNTSACDLPQGLDETSFREAVRKERSYELSFEGHRRQDLIRWGIYYKTVQATAKELGYWWEGTGSPNYSVATYTEEGKHELFPIPQRDMDLCIQFNQNPKW
# Key:
# Experiment in all cases: glycan array binding signal (z-score within array); higher = stronger binding
# Settings in all cases: glycan notation: IUPAC condensed, linker removed
# [1] = target: Gal(b1-3)GalNAc(b1-3)Gal(a1-4)Gal(b1-4)Glc
# In short: (§1)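 Glycan array data were curated from 3228 arrays in the Consortium for Functional Glycomics database and kept only where the protein sequence was available. Glycan names were converted to IUPAC-condensed notation, and columns mapping to the same glycan were averaged. The binding signal is a within-array Z-score, averaged across arrays of the same protein sequence at different concentrations or buffers and across linkers. Negative Z-scores can be read as non-binding.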
# [2] = target: Gal(b1-3)GalNAc(b1-4)Gal(b1-4)Glc
# In short: as §1
# [3] = target: Gal(b1-3)GalNAc(b1-4)[Neu5Ac(a2-3)]Gal(b1-4)Glc
# In short: as §1
# Gal(b1-3)GlcNAc = target: Gal(b1-3)GlcNAc
# In short: as §1
# [4] = target: Gal(b1-3)GlcNAc(a1-3)Gal(b1-4)GlcNAc
# In short: as §1
# [5] = target: Gal(b1-3)GlcNAc(a1-6)Gal(b1-4)GlcNAc
# In short: as §1
# Gal(b1-3)GlcNAc(b1-2)Man = target: Gal(b1-3)GlcNAc(b1-2)Man
# In short: as §1
# [6] = target: Gal(b1-3)GlcNAc(b1-2)Man(a1-3)[Gal(b1-3)GlcNAc(b1-2)Man(a1-6)]Man(b1-4)GlcNAc(b1-4)GlcNAc
# In short: as §1
# [7] = target: Gal(b1-3)GlcNAc(b1-2)Man(a1-3)[Gal(b1-3)GlcNAc(b1-2)Man(a1-6)]Man(b1-4)GlcNAc(b1-4)[Fuc(a1-6)]GlcNAc
# In short: as §1
# [8] = target: Gal(b1-3)GlcNAc(b1-2)Man(a1-3)[GlcNAc(b1-4)][Gal(b1-3)GlcNAc(b1-2)Man(a1-6)]Man(b1-4)GlcNAc(b1-4)GlcNAc
# In short: as §1
# [9] = target: Gal(b1-3)GlcNAc(b1-2)[Gal(b1-3)GlcNAc(b1-6)]Man(a1-6)[Gal(b1-3)GlcNAc(b1-2)Man(a1-3)]Man(b1-4)GlcNAc(b1-4)GlcNAc
# In short: as §1
# [10] = target: Gal(b1-3)GlcNAc(b1-3)Gal(b1-3)GlcNAc
# In short: as §1
# [11] = target: Gal(b1-3)GlcNAc(b1-3)Gal(b1-4)Glc
# In short: as §1
# [12] = target: Gal(b1-3)GlcNAc(b1-3)Gal(b1-4)GlcNAc
# In short: as §1
# [13] = target: Gal(b1-3)GlcNAc(b1-3)Gal(b1-4)GlcNAc(b1-2)Man(a1-3)[Gal(b1-3)GlcNAc(b1-3)Gal(b1-4)GlcNAc(b1-2)Man(a1-6)]Man(b1-4)GlcNAc(b1-4)GlcNAc
# In short: as §1
# [14] = target: Gal(b1-3)GlcNAc(b1-3)Gal(b1-4)GlcNAc(b1-2)[Gal(b1-3)GlcNAc(b1-3)Gal(b1-4)GlcNAc(b1-6)]Man(a1-6)[Gal(b1-3)GlcNAc(b1-3)Gal(b1-4)GlcNAc(b1-2)Man(a1-3)]Man(b1-4)GlcNAc(b1-4)[Fuc(a1-6)]GlcNAc
# In short: as §1
# [15] = target: Gal(b1-3)GlcNAc(b1-3)Gal(b1-4)GlcNAc(b1-3)Gal(b1-4)GlcNAc(b1-2)[Gal(b1-3)GlcNAc(b1-3)Gal(b1-4)GlcNAc(b1-3)Gal(b1-4)GlcNAc(b1-6)]Man(a1-6)[Gal(b1-3)GlcNAc(b1-3)Gal(b1-4)GlcNAc(b1-3)Gal(b1-4)GlcNAc(b1-2)Man(a1-3)]Man(b1-4)GlcNAc(b1-4)[Fuc(a1-6)]GlcNAc
# In short: as §1
# [16] = target: Gal(b1-3)GlcNAc(b1-3)Gal(b1-4)GlcNAc(b1-6)[Gal(b1-3)GlcNAc(b1-3)]Gal(b1-4)Glc
# In short: as §1
# [17] = target: Gal(b1-3)GlcNAc(b1-3)Gal(b1-4)[Fuc(a1-3)]GlcNAc
# In short: as §1
# [18] = target: Gal(b1-3)GlcNAc(b1-3)Gal(b1-4)[Fuc(a1-3)]GlcNAc(b1-6)[Gal(b1-3)GlcNAc(b1-3)]Gal(b1-4)Glc
# In short: as §1
# [19] = target: Gal(b1-3)GlcNAc(b1-3)GalNAc
# In short: as §1
# [20] = target: Gal(b1-3)GlcNAc(b1-6)Gal(b1-4)GlcNAc
# In short: as §1
# [21] = target: Gal(b1-3)GlcNAc(b1-6)GalNAc
# In short: as §1
# [22] = target: Gal(b1-3)GlcNAc(b1-6)[Gal(b1-3)]GalNAc
# In short: as §1
# Gal(b1-3)GlcNAc6S = target: Gal(b1-3)GlcNAc6S
# In short: as §1
# [23] = target: Gal(b1-3)[Fuc(a1-4)]GlcNAc
# In short: as §1
# [24] = target: Gal(b1-3)[Fuc(a1-4)]GlcNAc(b1-2)Man
# In short: as §1
# [25] = target: Gal(b1-3)[Fuc(a1-4)]GlcNAc(b1-2)Man(a1-3)[Gal(b1-3)[Fuc(a1-4)]GlcNAc(b1-2)Man(a1-6)]Man(b1-4)GlcNAc(b1-4)[Fuc(a1-6)]GlcNAc
# In short: as §1
# [26] = target: Gal(b1-3)[Fuc(a1-4)]GlcNAc(b1-3)Gal(b1-3)[Fuc(a1-4)]GlcNAc
# In short: as §1
# [27] = target: Gal(b1-3)[Fuc(a1-4)]GlcNAc(b1-3)Gal(b1-4)[Fuc(a1-3)]GlcNAc
# In short: as §1
# [28] = target: Gal(b1-3)[Fuc(a1-4)]GlcNAc(b1-6)GalNAc
# In short: as §1
# [29] = target: Gal(b1-3)[GlcNAc(b1-6)]GalNAc
# In short: as §1
# [30] = target: Gal(b1-3)[Neu5Ac(a2-6)]GalNAc
# In short: as §1
# [31] = target: Gal(b1-3)[Neu5Ac(a2-6)]GlcNAc(b1-4)Gal(b1-4)Glc
# In short: as §1
# [32] = target: Gal(b1-3)[Neu5Ac(b2-6)]GalNAc
# In short: as §1
# Gal(b1-4)Gal = target: Gal(b1-4)Gal
# In short: as §1
# [33] = target: Gal(b1-4)GalNAc(a1-3)[Fuc(a1-2)]Gal(b1-4)GlcNAc
# In short: as §1
# [34] = target: Gal(b1-4)GalNAc(b1-3)[Fuc(a1-2)]Gal(b1-4)GlcNAc
# In short: as §1
binder,measurement,setting,value
B1,glycan array binding signal (z-score),[1],-0.351
same,glycan array binding signal (z-score),[2],-0.315
same,glycan array binding signal (z-score),[3],-0.535
same,glycan array binding signal (z-score),Gal(b1-3)GlcNAc,-0.537
same,glycan array binding signal (z-score),[4],-0.348
same,glycan array binding signal (z-score),[5],-0.025
same,glycan array binding signal (z-score),Gal(b1-3)GlcNAc(b1-2)Man,-0.341
same,glycan array binding signal (z-score),[6],5.54
same,glycan array binding signal (z-score),[7],-0.334
same,glycan array binding signal (z-score),[8],1.22
same,glycan array binding signal (z-score),[9],0.922
same,glycan array binding signal (z-score),[10],-0.383
same,glycan array binding signal (z-score),[11],-0.147
same,glycan array binding signal (z-score),[12],-0.35
same,glycan array binding signal (z-score),[13],2.88
same,glycan array binding signal (z-score),[14],1.55
same,glycan array binding signal (z-score),[15],0.301
same,glycan array binding signal (z-score),[16],-0.43
same,glycan array binding signal (z-score),[17],-0.22
same,glycan array binding signal (z-score),[18],-0.37
same,glycan array binding signal (z-score),[19],-0.426
same,glycan array binding signal (z-score),[20],-0.37
same,glycan array binding signal (z-score),[21],0.811
same,glycan array binding signal (z-score),[22],0.09
same,glycan array binding signal (z-score),Gal(b1-3)GlcNAc6S,0.103
same,glycan array binding signal (z-score),[23],-0.121
same,glycan array binding signal (z-score),[24],1.56
same,glycan array binding signal (z-score),[25],-0.205
same,glycan array binding signal (z-score),[26],-0.279
same,glycan array binding signal (z-score),[27],-0.413
same,glycan array binding signal (z-score),[28],1.26
same,glycan array binding signal (z-score),[29],-0.03
same,glycan array binding signal (z-score),[30],-0.307
same,glycan array binding signal (z-score),[31],-0.021
same,glycan array binding signal (z-score),[32],-0.419
same,glycan array binding signal (z-score),Gal(b1-4)Gal,1.85
same,glycan array binding signal (z-score),[33],-0.549
same,glycan array binding signal (z-score),[34],-0.44
